Experimental data as given in a compilation of properties of binary mixtures (doi:10.1016/j.molliq.2012.12.018).
Some of these densities may be calculated back from excess volumes.

Test: xn = mol fraction of the nth substance listed
Settings: 101 kPa

CCCCCCCCn1cc[n+](C)c1.[I-] + O
mass density [kg/m3]
Settings | 298.15 K | 308.15 K
x1 = 0.019 | 1045.1 | 1040.8
x2 = 0.019 | 1232.9 | 1224.7
x2 = 0.051 | 1231.7 | 1223.4
x2 = 0.0904 | – | 1221.7
x2 = 0.1558 | 1227.3 | 1218.8
x2 = 0.193 | 1225.6 | 1217.1
x2 = 0.2071 | – | 1216.4
x2 = 0.3858 | 1216.1 | 1207.5
x2 = 0.445 | 1212.8 | –
x2 = 0.529 | 1207.3 | 1198.8
x2 = 0.6197 | 1199.8 | 1191.5
x2 = 0.7373 | – | 1176.8
x2 = 0.854 | 1155.3 | 1148
x2 = 0.9047 | 1130.6 | 1123.8
x2 = 0.939 | 1103.8 | –
x2 = 0.95 | 1092.2 | 1086.5
x2 = 0.9724 | 1061 | 1056.2
x2 = 0.979 | 1049.1 | 1044.6

CCCCCC[n+]1ccn(C)c1.[I-] + O
mass density [kg/m3]
Settings | 298.15 K | 308.15 K
x1 = 0.0192 | 1060.5 | –
x2 = 0.0211 | 1339.3 | 1331.4
x2 = 0.0488 | 1337.8 | 1329.5
x2 = 0.0888 | 1335.6 | –
x2 = 0.1888 | 1328.9 | 1320.2
x2 = 0.2501 | 1324.5 | 1316.1
x2 = 0.3026 | 1320.6 | 1312.5
x2 = 0.3488 | 1317.1 | 1309.3
x2 = 0.3976 | 1313.3 | 1305.6
x2 = 0.4439 | 1309.5 | 1301.8
x2 = 0.4989 | 1304.6 | 1296.8
x2 = 0.5898 | 1294.8 | 1286.6
x2 = 0.6438 | 1287.3 | 1278.7
x2 = 0.6898 | – | 1270.3
x2 = 0.8079 | 1245.1 | 1236.3
x2 = 0.9004 | 1187.7 | 1180.4
x2 = 0.9111 | 1177.3 | 1170.3
x2 = 0.9305 | 1154.9 | 1148.5
x2 = 0.9504 | 1125.6 | –

CCCC[n+]1ccn(C)c1.[I-] + O
mass density [kg/m3]
Settings | 298.15 K | 308.15 K
x1 = 0.0189 | 1076 | 1073
x2 = 0.0191 | 1483 | 1479
x2 = 0.0497 | 1481 | 1477
x2 = 0.0615 | 1480 | 1476
x2 = 0.1004 | 1478 | 1474
x2 = 0.1512 | 1474 | 1470
x2 = 0.2503 | 1466 | –
x2 = 0.3009 | 1461 | –
x2 = 0.3488 | – | 1452
x2 = 0.399 | 1450 | 1446
x2 = 0.4988 | – | 1431
x2 = 0.5506 | 1425 | 1421
x2 = 0.5992 | 1415 | –
x2 = 0.6596 | – | 1394
x2 = 0.7007 | 1386 | –
x2 = 0.7507 | 1366 | 1361
x2 = 0.8034 | 1339 | 1334
x2 = 0.8793 | 1277 | 1272
x2 = 0.9041 | 1247 | 1242
x2 = 0.9133 | 1233 | 1229
x2 = 0.9323 | 1202 | 1198
x2 = 0.9518 | 1161 | 1157
x2 = 0.9684 | 1117 | 1114
